The target in the assay is T1, RTEL1 tandem harmonin homology domains HHD1+2 (residues 886-1140) (human, UniProt Q9NZ71-6 886-1140).
T1 construct: RTEL1, human, residues 886-1140 (HHD1, linker, HHD2) of Uniprot Q9NZ71-6; pET-28a(+), NdeI/XhoI; uniformly 15N-labelled where it was the observed partner; also called HHD1-linker-HHD2; source: E. coli Rosetta (DE3), purified (Ni-NTA, heparin, SEC); not shown: His6, N-terminal, kept
T1 sequence (looked up): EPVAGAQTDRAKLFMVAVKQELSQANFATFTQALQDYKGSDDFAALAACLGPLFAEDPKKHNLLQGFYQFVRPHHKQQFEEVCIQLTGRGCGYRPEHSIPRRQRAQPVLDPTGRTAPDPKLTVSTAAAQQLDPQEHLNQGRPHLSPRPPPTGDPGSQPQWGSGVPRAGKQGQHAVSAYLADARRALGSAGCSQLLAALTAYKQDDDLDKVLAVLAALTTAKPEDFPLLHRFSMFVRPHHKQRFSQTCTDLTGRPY
The experiment in a line: NMR titration; 15N-labelled partner titrated with unlabelled partner; 1H-15N HSQC, 25°C, 20 mM Tris-HCl pH 7.4, 50 mM NaCl, 2 mM DTT, 0.02% NaN3; Kd and Koff from TITAN 2D lineshape analysis, two-state model. To be noted: both partners purified.

B1: RPA 32C winged-helix domain ([…] of RPA32) (domain or fragment)
chain: not shown
notes: RPA32 (RPA2), human, […] (winged-helix 32C domain); pET-15b; uniformly 15N-labelled where it was the observed partner; source: E. coli BL21(DE3) pLysS, purified (Ni-NTA, Q column, SEC); not shown: His6, N-terminal, kept
For the molecule B1, the binding result is “binds”.

These data come from PMC10853778 (Nucleic Acids Research, 2022).
